According to the supplement of paper PMC8728848:
This is one part of the list.

Key:
Experiment in all cases: glycan array binding signal (z-score within array); higher = stronger binding
Settings in all cases: glycan notation: IUPAC condensed, linker removed
[1] = molecular target: Gal(b1-3)GlcNAc(b1-3)Gal(b1-4)GlcNAc(b1-2)[Gal(b1-3)GlcNAc(b1-3)Gal(b1-4)GlcNAc(b1-6)]Man(a1-6)[Gal(b1-3)GlcNAc(b1-3)Gal(b1-4)GlcNAc(b1-2)Man(a1-3)]Man(b1-4)GlcNAc(b1-4)[Fuc(a1-6)]GlcNAc
In short: (§1)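 The binding signal is a Z-score computed within each array and averaged over linkers. Arrays of the same protein sequence at different concentrations or buffers were also averaged together. Data originate from 3228 arrays in the Consortium for Functional Glycomics database, kept only where the protein sequence was available.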

[2] = molecular target: Gal(b1-3)GlcNAc(b1-3)Gal(b1-4)GlcNAc(b1-3)Gal(b1-4)GlcNAc(b1-2)[Gal(b1-3)GlcNAc(b1-3)Gal(b1-4)GlcNAc(b1-3)Gal(b1-4)GlcNAc(b1-6)]Man(a1-6)[Gal(b1-3)GlcNAc(b1-3)Gal(b1-4)GlcNAc(b1-3)Gal(b1-4)GlcNAc(b1-2)Man(a1-3)]Man(b1-4)GlcNAc(b1-4)[Fuc(a1-6)]GlcNAc
In short: as §1

[3] = molecular target: Gal(b1-3)GlcNAc(b1-3)Gal(b1-4)GlcNAc(b1-6)[Gal(b1-3)GlcNAc(b1-3)]Gal(b1-4)Glc
In short: as §1

[4] = molecular target: Gal(b1-3)GlcNAc(b1-3)Gal(b1-4)[Fuc(a1-3)]GlcNAc(b1-6)[Gal(b1-3)GlcNAc(b1-3)]Gal(b1-4)Glc
In short: as §1

[5] = molecular target: Gal(b1-3)GlcNAc(b1-3)GalNAc
In short: as §1

[6] = molecular target: Gal(b1-3)GlcNAc(b1-6)Gal(b1-4)GlcNAc
In short: as §1

[7] = molecular target: Gal(b1-3)GlcNAc(b1-6)GalNAc
In short: as §1

[8] = molecular target: Gal(b1-3)GlcNAc(b1-6)[Gal(b1-3)]GalNAc
In short: as §1

Gal(b1-3)GlcNAc6S = molecular target: Gal(b1-3)GlcNAc6S
In short: as §1

[9] = molecular target: Gal(b1-3)[Fuc(a1-4)]GlcNAc
In short: as §1

[10] = molecular target: Gal(b1-3)[Fuc(a1-4)]GlcNAc(b1-2)Man
In short: as §1

[11] = molecular target: Gal(b1-3)[Fuc(a1-4)]GlcNAc(b1-2)Man(a1-3)[Gal(b1-3)[Fuc(a1-4)]GlcNAc(b1-2)Man(a1-6)]Man(b1-4)GlcNAc(b1-4)[Fuc(a1-6)]GlcNAc
In short: as §1

[12] = molecular target: Gal(b1-3)[Fuc(a1-4)]GlcNAc(b1-3)Gal(b1-3)[Fuc(a1-4)]GlcNAc
In short: as §1

[13] = molecular target: Gal(b1-3)[Fuc(a1-4)]GlcNAc(b1-3)Gal(b1-4)GlcNAc
In short: as §1

[14] = molecular target: Gal(b1-3)[Fuc(a1-4)]GlcNAc(b1-3)Gal(b1-4)[Fuc(a1-3)]GlcNAc
In short: as §1

[15] = molecular target: Gal(b1-3)[Fuc(a1-4)]GlcNAc(b1-6)GalNAc
In short: as §1

[16] = molecular target: Gal(b1-3)[GlcNAc(b1-6)]GalNAc
In short: as §1

[17] = molecular target: Gal(b1-3)[Neu5Ac(a2-6)]GalNAc
In short: as §1

[18] = molecular target: Gal(b1-3)[Neu5Ac(a2-6)]GlcNAc(b1-4)Gal(b1-4)Glc
In short: as §1

[19] = molecular target: Gal(b1-3)[Neu5Ac(b2-6)]GalNAc
In short: as §1

Gal(b1-4)Gal = molecular target: Gal(b1-4)Gal
In short: as §1

[20] = molecular target: Gal(b1-4)GalNAc(a1-3)[Fuc(a1-2)]Gal(b1-4)GlcNAc
In short: as §1

[21] = molecular target: Gal(b1-4)GalNAc(b1-3)[Fuc(a1-2)]Gal(b1-4)GlcNAc
In short: as §1

Gal(b1-4)Glc = molecular target: Gal(b1-4)Glc
In short: as §1

Gal(b1-4)Glc6S = molecular target: Gal(b1-4)Glc6S
In short: as §1

Gal(b1-4)GlcNAc = molecular target: Gal(b1-4)GlcNAc
In short: as §1

[22] = molecular target: Gal(b1-4)GlcNAc(a1-6)Gal(b1-4)GlcNAc
In short: as §1

Gal(b1-4)GlcNAc(b1-2)Man = molecular target: Gal(b1-4)GlcNAc(b1-2)Man
In short: as §1

[23] = molecular target: Gal(b1-4)GlcNAc(b1-2)Man(a1-3)Man(b1-4)GlcNAc(b1-4)GlcNAc
In short: as §1

[24] = molecular target: Gal(b1-4)GlcNAc(b1-2)Man(a1-3)[Gal(b1-4)GlcNAc(b1-2)Man(a1-6)]Man(b1-4)GlcNAc(b1-4)GlcNAc
In short: as §1

[25] = molecular target: Gal(b1-4)GlcNAc(b1-2)Man(a1-3)[Gal(b1-4)GlcNAc(b1-2)Man(a1-6)]Man(b1-4)GlcNAc(b1-4)[Fuc(a1-6)]GlcNAc
In short: as §1

[26] = molecular target: Gal(b1-4)GlcNAc(b1-2)Man(a1-3)[Gal(b1-4)GlcNAc(b1-2)Man(a1-6)][Gal(b1-4)GlcNAc(b1-4)]Man(b1-4)GlcNAc(b1-4)[Fuc(a1-6)]GlcNAc
In short: as §1

[27] = molecular target: Gal(b1-4)GlcNAc(b1-2)Man(a1-3)[Gal(b1-4)GlcNAc(b1-2)Man(a1-6)][GlcNAc(b1-4)]Man(b1-4)GlcNAc(b1-4)[Fuc(a1-6)]GlcNAc
In short: as §1

[28] = molecular target: Gal(b1-4)GlcNAc(b1-2)Man(a1-3)[GlcNAc(b1-2)Man(a1-6)]Man(b1-4)GlcNAc(b1-4)GlcNAc
In short: as §1

[29] = molecular target: Gal(b1-4)GlcNAc(b1-2)Man(a1-3)[GlcNAc(b1-4)][Gal(b1-4)GlcNAc(b1-2)Man(a1-6)]Man(b1-4)GlcNAc(b1-4)GlcNAc
In short: as §1

[30] = molecular target: Gal(b1-4)GlcNAc(b1-2)Man(a1-3)[Man(a1-6)]Man(b1-4)GlcNAc(b1-4)GlcNAc
In short: as §1

[31] = molecular target: Gal(b1-4)GlcNAc(b1-2)Man(a1-6)Man(b1-4)GlcNAc(b1-4)GlcNAc
In short: as §1

[32] = molecular target: Gal(b1-4)GlcNAc(b1-2)Man(a1-6)[GlcNAc(b1-2)Man(a1-3)]Man(b1-4)GlcNAc(b1-4)GlcNAc
In short: as §1

B1: FliC (Pseudomonas aeruginosa), P72151 (protein)
chain: MALTVNTNIASLNTQRNLNASSNDLNTSLQRLTTGYRINSAKDDAAGLQISNRLSNQISGLNVATRNANDGISLAQTAEGALQQSTNILQRIRDLALQSANGSNSDADRAALQKEVAAQQAELTRISDTTTFGGRKLLDGSFGTTSFQVGSNAYETIDISLQNASASAIGSYQVGSNGAGTVASVAGTATASGIASGTVNLVGGGQVKNIAIAAGDSAKAIAEKMDGAIPNLSARARTVFTADVSGVTGGSLNFDVTVGSNTVSLAGVTSTQDLADQLNSNSSKLGITASINDKGVLTITSATGENVKFGAQTGTATAGQVAVKVQGSDGKFEAAAKNVVAAGTAATTTIVTGYVQLNSPTAYSVSGTGTQASQVFGNASAAQKSSVASVDISTADGAQNAIAVVDNALAAIDAQRADLGAVQNRFKNTIDNLTNISENATNARSRIKDTDFAAETAALSKNQVLQQAGTAILAQANQLPQAVLSLLR
[1]
  glycan array binding signal (z-score): 0.103
[2]
  glycan array binding signal (z-score): 2.32
[3]
  glycan array binding signal (z-score): -0.165
[4]
  glycan array binding signal (z-score): -0.094
[5]
  glycan array binding signal (z-score): -0.138
[6]
  glycan array binding signal (z-score): -0.214
[7]
  glycan array binding signal (z-score): -0.139
[8]
  glycan array binding signal (z-score): 0.427
Gal(b1-3)GlcNAc6S
  glycan array binding signal (z-score): -0.134
[9]
  glycan array binding signal (z-score): -0.157
[10]
  glycan array binding signal (z-score): -0.087
[11]
  glycan array binding signal (z-score): -0.235
[12]
  glycan array binding signal (z-score): -0.135
[13]
  glycan array binding signal (z-score): -0.193
[14]
  glycan array binding signal (z-score): -0.208
[15]
  glycan array binding signal (z-score): -0.106
[16]
  glycan array binding signal (z-score): 0.274
[17]
  glycan array binding signal (z-score): 0.527
[18]
  glycan array binding signal (z-score): 0.874
[19]
  glycan array binding signal (z-score): -0.299
Gal(b1-4)Gal
  glycan array binding signal (z-score): -0.191
[20]
  glycan array binding signal (z-score): -0.198
[21]
  glycan array binding signal (z-score): -0.165
Gal(b1-4)Glc
  glycan array binding signal (z-score): -0.2
Gal(b1-4)Glc6S
  glycan array binding signal (z-score): -0.138
Gal(b1-4)GlcNAc
  glycan array binding signal (z-score): -0.16
[22]
  glycan array binding signal (z-score): -0.224
Gal(b1-4)GlcNAc(b1-2)Man
  glycan array binding signal (z-score): -0.177
[23]
  glycan array binding signal (z-score): -0.186
[24]
  glycan array binding signal (z-score): -0.104
[25]
  glycan array binding signal (z-score): -0.117
[26]
  glycan array binding signal (z-score): -0.227
[27]
  glycan array binding signal (z-score): -0.194
[28]
  glycan array binding signal (z-score): -0.133
[29]
  glycan array binding signal (z-score): -0.157
[30]
  glycan array binding signal (z-score): -0.116
[31]
  glycan array binding signal (z-score): -0.184
[32]
  glycan array binding signal (z-score): -0.235
